# Reference: PubChem BioAssay AID1345083 (National Center for Advancing Translational Sciences (NCATS), 2018)
# Hit rate of the full screen: of about 94,000 compounds, about 6,200 (6.6%) were called active. Inconclusive results, whose numbers are uncertain, are shown with a selection of clear calls. The call rests on the fitted dose curve; in most records, active means well fitted inhibition curve with a large enough effect; inconclusive means small, poorly fitted or top-dose-only effect; inactive means flat fitted curve, though single readings scatter. A potency beside an inconclusive call is a rough fit, not a confirmed value.
# Assay: Cytotoxic Profiling in HEK 293 Cell Line of Diverse Libraries Using Quantitative High-Throughput Screening; further: nearly all actives have a fitted effect of over 60% in size
# Settings: HEK 293 viability, ATP luminescence (CellTiter-Glo), 48-72 h; activity change, negative = cytotoxicity: at 115 µM (top of the series) unless noted; series mostly up to 115 µM
# Method in brief: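 CellTiter-Glo luminescence (cellular ATP) was read after 48 or 72 hr of compound exposure at 37 degree Celsius. Cells were HEK 293 plated at 250 cells/well.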
# On the % scale 0 is the no-effect control and ±100 the full control effect; potency means the concentration at half of the fitted maximal effect; tags describe the fitted curve by direction and shape.
SMILES,Potency,"activity change, negative = cytotoxicity",outcome
Cc1ccc(CC(=O)NC2CCN(c3cc(-c4ccccc4)[nH]n3)C2)cc1 (stereo unspecified),"inconclusive: 25.1 µM [inhibitor, full curve, poor fit]",–,–
CC(C)(C)NC(=O)N1CCC2(CC1)CC(Cc1cccc(F)c1)CCO2 (stereo unspecified),"inconclusive: 10 µM [inhibitor, full curve, poor fit]",–,–
O=C(NC1CCN(c2cc(-c3ccc(F)cc3)[nH]n2)CC1)c1ccc(F)c(Cl)c1,"inconclusive: 44.7 µM [inhibitor, partial curve, poor fit]",–,–
COc1ncccc1-c1cnc2n[nH]c(-c3ccccc3)c2n1,active: 70.8 µM,–,–
O=C(Cc1ccc(N(Cc2ccc(F)cc2)C(=O)c2ccco2)cc1)Nc1ccc(F)cc1,"inconclusive: 35.5 µM [inhibitor, full curve, poor fit]",–,–
Cc1nc(C)c(C)c(N2CCC(Oc3ccc4ccccc4c3)(C(=O)O)CC2)n1,–,inactive: -2.43%,–
O=C1CC(c2ccccc2)N(C(=O)CNC(=O)c2cccs2)CCCCCCN1 (stereo unspecified),–,inactive: -6.62%,–
COCC(=O)N1CC2(CCCCC2)CC1COc1ccc(OC)cc1 (stereo unspecified),"inconclusive: 50.1 µM [inhibitor, partial curve, poor fit]",–,–
CN(Cc1cnn(C)c1)c1ccc(-c2nc(COc3ccccc3)no2)cn1,–,inactive: -23.2%,–
O=C(NCCc1ccccn1)C1CN(C2CCCC2)C(=O)N1 (stereo unspecified),–,inactive: -0.915% [at 172 µM],–
CN1CCC(O)(C(=O)N2C[C@@H](C(=O)O)[C@H](c3ccc4c(c3)OCO4)C2)CC1,–,inactive: -27.6%,–
Cc1oc(-c2cccs2)nc1CN1CCCC(c2ccn[nH]2)C1 (stereo unspecified),"inconclusive: 56.2 µM [inhibitor, partial curve, poor fit]",–,–
Cc1ccc(S(=O)(=O)N2CCCC(CCC(=O)NCc3ccccn3)C2)cc1 (stereo unspecified),"inconclusive: 89.1 µM [inhibitor, single point]",–,–
Cn1cccc1CN1CCCC2(C1)C(=NC1CCCC1)NC(=O)N2c1cccnc1 (stereo unspecified),–,–,inactive
COc1ccc(NC(=O)[C@@H]2C[C@@H](c3ccc(F)cc3)N([S+](=O)([O-])c3cccnc3)C2)c(C)c1,"inconclusive: 89.1 µM [inhibitor, partial curve, poor fit]",–,–
O=C(c1ccc(F)cc1)N1CCC2(CC1)CC(c1cccc(C(F)(F)F)c1)=NO2,"inconclusive: 44.7 µM [inhibitor, partial curve, poor fit]",–,–
CCN1CC(c2nc(-c3ccc(-n4nc(C)cc4N)cc3)no2)CCC1=O (stereo unspecified),"inconclusive: 50.1 µM [inhibitor, partial curve, poor fit]",–,–
Cc1ncsc1CN(Cc1ccccc1)C(=O)c1cn(CCC2CCCCC2)nn1,"inconclusive: 25.1 µM [inhibitor, full curve]",–,–
CCC(=O)N1CCN(c2nc3c(s2)CC(C(=O)NCc2cccc(OC)c2)CC3)CC1 (stereo unspecified),"inconclusive: 89.1 µM [inhibitor, partial curve, poor fit]",–,–
COc1cccc(CC(=O)N2CCOc3ccc(CN4CCc5ccccc5C4)cc3C2)c1,"inconclusive: 44.7 µM [inhibitor, partial curve, poor fit]",–,–
CC(C)C(=O)Nc1ccc(C2(C(=O)O)CCC2)cc1,–,inactive: 6.69%,–
CN1CC(=O)N(C2CNC2)Cc2c(NC3CCCC3)ncnc21,–,inactive: 1.83%,–

SMILES,Potency,"activity change, negative = cytotoxicity",outcome
COc1ccc2nc(C[C@@H]3C[C@@H](C(C)C)[C@H](CNCc4ccccc4)C=C3C)[nH]c2c1,active: 44.7 µM,–,–
CN1CCC(NC(=O)C2(C)CCc3cnc(Nc4ccccc4)nc32)CC1 (stereo unspecified),"inconclusive: 100 µM [inhibitor, partial curve, poor fit]",–,–
COc1cccc(CNC(=O)N2c3ccccc3CC2c2nc(C3CC3)no2)c1 (stereo unspecified),"inconclusive: 50.1 µM [inhibitor, partial curve, poor fit]",–,–
Cc1ccc(NC(=O)N2CCC(N3CC4CC(C3)[C@H]3CCCC(=O)N3C4)CC2)cc1 (stereo partly specified),–,inactive: 3.08%,–
COc1ccc(C(=O)N2CCC(Cc3nc(-c4cccnc4)n[nH]3)C2)cc1F (stereo unspecified),–,inactive: 2.45%,–
COc1ccc(-c2noc(-c3cccn3CC(=O)N3CCN(c4ccccc4OC)CC3)n2)cc1F,"inconclusive: 12.6 µM [inhibitor, partial curve, poor fit]",–,–
COc1cccc(S(=O)(=O)N2CCCC(CN3CCOCC3)CC2)c1 (stereo unspecified),"inconclusive: 50.1 µM [inhibitor, partial curve, poor fit]",–,–
c1ccc(-c2cn3c(n2)CO[C@@H](CNC2CCOCC2)C3)cc1,–,inactive: -6.37% [at 172 µM],–
COCc1cc(N2CCC(c3cccc(OC)c3OC)C2)ncn1 (stereo unspecified),"inconclusive: 5.62 µM [inhibitor, full curve, poor fit]",–,–
COC(=O)CNC(=O)C1CCCN(Cc2cccc(-c3cccc(C)c3)c2)C1 (stereo unspecified),–,inactive: -21.2%,–
COc1ccc(C2=NOC3(CCN([S+](=O)([O-])c4cccs4)C3)C2)cc1 (stereo unspecified),"inconclusive: 44.7 µM [inhibitor, partial curve, poor fit]",–,–
O=C(NC1CCN(c2cc(-c3ccc(Cl)cc3)[nH]n2)C1)c1ccccc1Br (stereo unspecified),active: 28.2 µM,–,–
O=C(c1ccn[nH]1)N1CC(c2ncc3c(-c4cccc(C(F)(F)F)c4)nccn23)C1,"inconclusive: 89.1 µM [inhibitor, partial curve]",–,–
COc1ccccc1C(=O)N1CCCN(c2ccnc3ccnn23)CC1,–,inactive: -14%,–
Cc1ccccc1C(=O)N1CCC(N2C(=O)c3c(c(C)nn3-c3ccccc3)C2C(C)C)CC1 (stereo unspecified),active: 39.8 µM,–,–
Cc1cccc(-c2nc3ccc(C(=O)NCC(C)C)cc3o2)n1,"inconclusive: 100 µM [inhibitor, partial curve, poor fit]",–,–
Cc1nc(C2CC(O)C2)cc(N2CCC(n3c(=O)[nH]c4ccccc43)CC2)n1 (stereo unspecified),"inconclusive: 89.1 µM [inhibitor, single point]",–,–
CN1C[C@@H](NC(=O)Nc2ccccc2)C[C@H]1c1nc(Cc2ccccc2)no1,"inconclusive: 126 µM [inhibitor, single point]",–,–
COCc1ccc2c(c1)c(OC(C)(C)C(=O)NCCN1CCOCC1)nn2CCC(C)C,–,inactive: -2.63%,–
CCc1nc2c(c(-c3ccc(Cl)cc3)n1)CN(Cc1ccc(F)cc1)CC2,active: 44.7 µM,–,–
Cc1csc(NC(=O)[C@@H]2CCC[C@@H](NC(=O)c3ccccc3)CN(C)C(=O)C2)n1,–,inactive: -20.2% [at 172 µM],–
CC(C)NS(=O)(=O)c1ccc2c(c1)nc(-c1cc(C(C)(C)C)[nH]n1)n2C(C)C,active: 44.7 µM,–,–

SMILES,Potency,"activity change, negative = cytotoxicity",outcome
COc1cccc(C(=O)N2CCCC2C(=O)N2CCC(N3CCOCC3=O)CC2)c1 (stereo unspecified),–,–,inactive
CS(=O)(=O)N1C[C@@H]2OCC(=O)N(Cc3ccccc3)[C@@H]2C1,–,inactive: -7.86% [at 172 µM],–
CS(=O)(=O)c1ccc(CN2CCOC[C@H]2c2ncc(-c3ccc(C(F)(F)F)cc3)[nH]2)cc1,"inconclusive: 89.1 µM [inhibitor, single point]",–,–
CCCCNC(=O)Cc1csc2nc(C)c(-c3cc(C)n(-c4cc(F)ccc4C)n3)c(=O)n12,"inconclusive: 89.1 µM [inhibitor, single point]",–,–
COc1ccc(C)cc1NC(=O)CN1C(=O)NC(c2ccc(C)cc2)C2=C1COC2=O (stereo unspecified),"inconclusive: 39.8 µM [inhibitor, partial curve, poor fit]",–,–
COC[C@@H]1CN(C(=O)Cc2ccc(OC)cc2)C[C@H]1c1nc(C)no1,–,–,inactive
COCCN[C@H]1[C@@H]2OC[C@@H](O2)[C@@H](NCc2ccc(-c3ccccc3)cc2)[C@@H]1O,"inconclusive: 89.1 µM [inhibitor, partial curve, poor fit]",–,–
O=[S+]1([O-])NC2(CCCN(Cc3ccccc3)C2)CNc2ccccc21 (stereo unspecified),"inconclusive: 79.4 µM [inhibitor, partial curve]",–,–
Cc1cc(C)cc(-c2ccc(CN3CCCC3C(=O)NCC(F)F)cc2)c1 (stereo unspecified),"inconclusive: 50.1 µM [inhibitor, partial curve, poor fit]",–,–
O=C(NCC1(O)CCCCC1)c1ccc2nc(Cc3ccccc3F)oc2c1,"inconclusive: 22.4 µM [inhibitor, full curve, poor fit]",–,–
O=C(Nc1ccc(F)cc1F)N1CCC(CCNC(=O)C2(c3ccccc3)CC2)CC1,"inconclusive: 39.8 µM [inhibitor, partial curve, poor fit]",–,–
O=C(c1cccc(Cl)c1)N1CCCC2(C1)NC(=O)N(Cc1ccccc1)C2=O (stereo unspecified),–,inactive: -2.16%,–
CN1CC(=O)N(c2ccccc2F)Cc2c(NC3CCOCC3)ncnc21,–,inactive: 0.839%,–
Cn1ccnc1CNC(=O)C[C@@H]1C[C@H]2O[C@H](CNCc3ccccc3OC(F)(F)F)[C@@H](O)[C@H]2O1,–,–,inactive
Fc1ccccc1-c1cnc2n[nH]c(-c3ccc4c(c3)OCO4)c2n1,"inconclusive: 100 µM [inhibitor, partial curve]",–,–
CCOCC1(C)COc2ccc(C(=O)NCCc3ccccc3)cc2N1 (stereo unspecified),"inconclusive: 112 µM [inhibitor, partial curve, poor fit]",–,–
COc1ccc(-c2cc(-c3c(C)noc3C)c3cncn3c2)cc1,"inconclusive: 35.5 µM [inhibitor, partial curve, poor fit]",–,–
Cc1csc(NC(=O)c2nc3c(o2)CCN(Cc2ccccc2)CC3)n1,active: 56.2 µM,–,–
COCCOC1CCOC2(CCN(S(=O)(=O)Cc3ccccc3)CC2)C1 (stereo unspecified),"inconclusive: 89.1 µM [inhibitor, single point]",–,–
Cc1cccc(CN(C(=O)c2ccco2)c2ccc(CC(=O)NC(C)C)cc2)c1,"inconclusive: 31.6 µM [inhibitor, full curve]",–,–
C#CCNC(=O)c1ccc(-c2ccc(OC)nn2)cc1,"inconclusive: 70.8 µM [inhibitor, partial curve, poor fit]",–,–
Cn1ncc2c(C(=O)NC3CCCC3)cc(-c3cccc(F)c3)nc21,"inconclusive: 63.1 µM [inhibitor, full curve, poor fit]",–,–
